# The campaign covered roughly 310,000 compounds. About 14,000 (4.5%) showed an effect of 50% or more. Effects have a minus sign here. This is one part of the list.
# Molecular target: human ether-à-go-go-related gene (hERG) potassium channel (human, UniProt Q12809)
# Assay: primary screen, population patch clamp on CHO cells stably expressing hERG
# 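Note: peak tail current of the secondary pulse compared with the same well before compound.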
# human ether-à-go-go-related gene (hERG) potassium channel, sequence (Q12809 whole entry, looked up): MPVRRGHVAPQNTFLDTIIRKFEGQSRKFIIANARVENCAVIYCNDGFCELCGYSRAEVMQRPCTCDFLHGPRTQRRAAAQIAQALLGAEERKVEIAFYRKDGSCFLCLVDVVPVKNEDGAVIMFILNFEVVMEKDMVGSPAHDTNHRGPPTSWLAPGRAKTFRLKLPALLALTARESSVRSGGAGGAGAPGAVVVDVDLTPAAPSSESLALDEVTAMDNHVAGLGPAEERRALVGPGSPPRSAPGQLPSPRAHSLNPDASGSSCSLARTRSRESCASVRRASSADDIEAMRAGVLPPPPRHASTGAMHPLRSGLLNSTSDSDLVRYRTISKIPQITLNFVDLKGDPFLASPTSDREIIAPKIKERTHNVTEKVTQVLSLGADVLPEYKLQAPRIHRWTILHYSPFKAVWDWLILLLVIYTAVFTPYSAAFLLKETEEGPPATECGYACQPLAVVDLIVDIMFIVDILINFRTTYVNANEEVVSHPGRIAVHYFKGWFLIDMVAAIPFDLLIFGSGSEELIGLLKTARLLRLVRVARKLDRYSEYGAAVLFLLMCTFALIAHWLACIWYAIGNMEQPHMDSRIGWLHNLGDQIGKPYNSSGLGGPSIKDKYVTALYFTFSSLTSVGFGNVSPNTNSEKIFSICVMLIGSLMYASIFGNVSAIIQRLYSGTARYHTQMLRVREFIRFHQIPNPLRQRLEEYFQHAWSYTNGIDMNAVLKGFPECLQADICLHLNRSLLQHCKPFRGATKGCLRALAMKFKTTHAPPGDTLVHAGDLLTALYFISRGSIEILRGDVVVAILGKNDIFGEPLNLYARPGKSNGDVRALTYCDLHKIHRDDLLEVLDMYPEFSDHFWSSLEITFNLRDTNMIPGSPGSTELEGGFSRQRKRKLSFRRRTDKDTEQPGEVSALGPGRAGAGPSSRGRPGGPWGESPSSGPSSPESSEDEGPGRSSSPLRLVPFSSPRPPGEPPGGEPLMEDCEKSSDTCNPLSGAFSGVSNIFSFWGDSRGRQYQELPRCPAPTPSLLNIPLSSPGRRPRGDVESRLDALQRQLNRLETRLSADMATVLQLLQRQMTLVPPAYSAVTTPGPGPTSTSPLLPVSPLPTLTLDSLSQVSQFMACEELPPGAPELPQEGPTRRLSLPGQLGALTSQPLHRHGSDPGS
row,SMILES,"hERG current change (%, negative = inhibition) at 10uM [%]"
1,Cc1cc(C)c(C(=O)Nc2ccccc2)c(CC(C)(C)C(=O)O)c1,18
2,O=C(C1CCN(S(=O)(=O)N2CCOCC2)CC1)N1CCN(c2ccccc2F)CC1,14.5
3,O=C(Nc1ccccc1C(=O)NC(Cc1ccc(O)cc1)C(=O)O)c1ccccc1 (stereo not shown),12.2
4,Cc1ccc(N=C2N=C(N)c3ccccc32)c(C)c1,-2.47
5,Cc1cc(F)ccc1NC(=O)c1cccnc1,4.45
6,CC(=O)NC(Cc1ccc(F)cc1)C(=O)NC1CCN(S(=O)(=O)c2ccccc2)CC1 (stereo not shown),-7.09
7,Cn1c(=O)c2c(nc(Br)n2Cc2ccc3ccccc3c2)n(C)c1=O,2.56
8,Cc1ccc(S(=O)(=O)c2c(N)n(Cc3ccco3)c3nc4ccccc4nc23)cc1,10.4
9,Cc1ccc(S(=O)(=O)NCC(=O)N/N=C/c2ccc(Cl)cc2Cl)cc1,-12.9
10,CCOC(=O)c1cnc2ccc(OCC)cc2c1NCc1ccccc1,-40.3
11,COc1ccc2nc(NC3=NC(c4ccccc4)CC(=O)N3)nc(C)c2c1 (stereo not shown),-15.1
12,COc1cccc(NC(=S)N(Cc2ccco2)C(C)c2ccco2)c1 (stereo not shown),-19.2
13,COc1ccc(NC(=O)COC(=O)c2cc(C)oc2C)c([N+](=O)[O-])c1,7.49
14,N#Cc1cccc(NC(=O)CCNS(=O)(=O)c2ccc3[nH]c(=O)oc3c2)c1,17.9
15,CC1CCCCC1NC(=O)CCS(=O)(=O)c1cccc2nonc12 (stereo not shown),5.27
16,COc1ccc(OC)c(C(=O)c2ccc(C(=O)c3cc(OC)ccc3OC)cc2)c1,-4.65
17,COc1cc(CNS(=O)(=O)c2ccc3c(c2)CC(C)N3C(=O)C2CCC2)cc(OC)c1OC (stereo not shown),-10.2
18,CN(C)CCCOC(=O)COc1ccc(Br)cc1.Cl,-5.78
19,Cn1nnnc1NCc1cccc(Cl)c1,6.57
20,CCOC(=O)c1ccc(NC(=O)Nc2c(C)nn(C)c2C)cc1,-3.78
21,CC(C)Oc1ccc(S(=O)(=O)N2CCCCC2)cc1NC(=O)C1CCC1,-30.4
22,COc1cccc(-c2nn(-c3ccccc3)cc2C(=O)O)c1,1.11

row,SMILES,"hERG current change (%, negative = inhibition) at 10uM [%]"
1,COc1cc(OC)cc(C(=O)NCC(=O)OC2CCOC2=O)c1 (stereo not shown),10.4
2,CC(=O)Nc1ccc(C(=O)N2CCCC2)cc1,5.29
3,Cc1cccc(C)c1NC(=O)C1CCCN1C(=O)NCc1ccccc1 (stereo not shown),17.3
4,Cc1ccc(OP(=O)(Nc2c(C)n(C)n(-c3ccccc3)c2=O)Oc2ccc(C)cc2)cc1,-7.98
5,Cc1nn(CC(=O)Nc2ccc(Cl)cn2)c(C)c1[N+](=O)[O-],-7.96
6,Cc1cc(C)nc(N2N=C(C(C)(C)C)CC2=O)n1,11.9
7,CC1S/C(=N/N=C2CCC(C(C)(C)C)CC2)NC1=O (stereo not shown),8.05
8,Cc1nc2c3cc(Cl)ccc3n(CCN3CCCCC3)c2s1.Cl,-70
9,Cc1ccc(Cl)cc1NC(=O)C(Cc1ccccc1)N1C(=O)C2C3CCC(C3)C2C1=O (stereo not shown),-13.4
10,Cn1c(SCc2c(Cl)cccc2Cl)nc(C(F)(F)F)cc1=O,-7.12
11,CCCc1cc(C(=O)Nc2sc3c(c2C(=O)OCC)CCCC3)no1,6.07
12,Cc1occc1C(=O)NC(C)C1CCCO1 (stereo not shown),1.07
13,CCOC(=O)c1ccccc1NC(=O)C1CCN(c2ncnc3sc(C)c(C)c23)CC1,-11.4
14,COc1ccc(C(=O)NCC(=O)NCC(=O)OCC(=O)C(C)(C)C)cc1,10
15,Cc1cccc(-c2noc(CCCC(=O)N3CCOCC3)n2)c1,5.26
16,O=C(Nc1cccnc1)C1CCCN(S(=O)(=O)c2ccccc2)C1 (stereo not shown),-7.62
17,COc1ccc([C@H]2[C@H](C(=O)OC(C)(C)C)N3N=Cc4ccccc4C3C23C(=O)c2ccccc2C3=O)c(OC)c1 (stereo partly shown),-7.11
18,Cc1cc(CC(C)C)n(-c2nc3ccccc3c(=O)n2OCC(=O)N(C)C)n1,-3.47
19,O=C(c1ccc(Br)cc1)N(Cc1nc2ccccc2c(=O)[nH]1)C1CCCC1,-13.4
20,O=C(NCc1ccccc1)C1CCCN1S(=O)(=O)c1ccc(F)cc1 (stereo not shown),20.6
21,Cc1ccc2cn[nH]c2c1[N+](=O)[O-],-4.52
22,O=C(OCCc1cc2ccccc2c(=O)o1)N1CCOCC1,13.5

row,SMILES,"hERG current change (%, negative = inhibition) at 10uM [%]"
1,COc1ccccc1/C=C/C(=O)OCCN1CCOCC1.Cl,2.69
2,O=C(Nc1ccccc1)C1=C[C@@H](c2ccccc2)C[C@@H](OCc2ccc(CO)cc2)O1,2.2
3,COC(=O)Cc1c(O)ccn(Cc2cccc(C(F)(F)F)c2)c1=O,14.1
4,Cc1ccccc1NC(=S)NC(NC(=O)c1ccco1)C(Cl)(Cl)Cl (stereo not shown),-5.77
5,Oc1ccccc1-c1nc(NCc2cccnc2)c2ccccc2n1,9.87
6,O=C(NC(Cc1ccccc1)C(=O)O)/C(=C/c1ccc([N+](=O)[O-])cc1)NC(=O)c1ccco1 (stereo not shown),12.6
7,O=C(NCc1ccc(Cl)cc1)NCC(F)(F)F,7
8,Nc1nc2nn(-c3ccccc3)nc2c(=O)[nH]1,12.5
9,CC(Nc1nc(-c2ccc(F)cc2)cs1)c1nc2cc(C(F)(F)F)ccc2n1CCOCCO (stereo not shown),-18.1
10,O=C(CN1C(=O)S/C(=C\c2ccccc2)C1=O)NC1CCS(=O)(=O)C1 (stereo not shown),3.59
11,c1ccc(CC2CCCCN2)cc1 (stereo not shown),12.5
12,Brc1ccc(-c2csc(N3CCCCCC3)n2)cc1,17.1
13,C=CCn1c(O)c(C(CC)=NCc2ccco2)c(=O)[nH]c1=O,-27.6
14,CC(C)(CNc1ccc(C(F)(F)F)cc1[N+](=O)[O-])N1CCOCC1,11.8
15,COc1ccc(C(=O)OCC(=O)Nc2ccc(F)c(F)c2F)cc1OC,-11.6
16,CC(C)(C)NC(=O)CN(Cc1cccs1)C(=O)CN1C(=O)C(=O)c2ccccc21,-5.03
17,Cc1ncc(N=Nc2ccccc2Cl)c(-c2ccccc2)n1,2
18,COc1ccc(OC)c(C(=O)c2ccc(C(=O)Nc3ccc4ccccc4c3)cc2)c1,8.94
19,COCc1nnc(NC(=O)c2cc(OC)c(OC)cc2[N+](=O)[O-])s1,1.59
20,Cc1ccc(NC(=O)CSc2nnc(C3CC3)n2C)cc1S(=O)(=O)N1CCCCC1,-16.6
21,CCCN(CC(=O)Nc1cc(Cl)ccc1Cl)C(=O)/C=C/c1ccco1,-35.5
22,Cc1cccc(C(=O)N2CCN(S(=O)(=O)N3CCCCCC3)CC2)c1,-21.6

row,SMILES,"hERG current change (%, negative = inhibition) at 10uM [%]"
1,COc1ccc(OCC(O)CNc2ccc(Br)cc2)cc1 (stereo not shown),9.56
2,Cn1cc(/C=C2\SC(=S)N(N3CCOCC3)C2=O)c2ccccc21,21.4
3,O=C(Nc1ccc2c(c1)OCO2)C1CCCN1C(=O)Nc1cccc(F)c1 (stereo not shown),-40.4
4,COc1ccc(OC)c(C2C(C(=O)Nc3nc4ccccc4s3)=C(C)NC3=C2C(=O)CCC3)c1 (stereo not shown),12.8
5,S=C(NCCc1ccccc1)NCC1CCCO1 (stereo not shown),7.28
6,Cc1ccc(NC(=O)CSc2nnc(CCNC(=O)OC(C)(C)C)o2)c(C)c1,-19.3
7,CCOc1cc(N2CCOCC2)c(OCC)cc1NC(=O)CCC1CCCC1,-30.2
8,Cc1cc2c(c(=O)n1CC1CCCO1)C(c1ccco1)C(C#N)=C(N)O2 (stereo not shown),3.35
9,O=C1NC(=S)S/C1=C\c1cc2ccccc2nc1N1CCCCC1,4.78
10,Cn1cccc1C(=O)Nc1nccs1,7.96
11,Cc1cccc(NC(=O)c2cc(S(=O)(=O)NCc3ccco3)ccc2F)c1C,4.11
12,CCN(CC)C1=C(Cl)C(=O)C(Cl)C12OCCO2 (stereo not shown),5.63
13,CN(CC(=O)Nc1c(Cl)cccc1Cl)C(=O)CCCN1C(=O)c2ccccc2C1=O,-9.14
14,CCCCCCC(=O)Nc1ccc(C(=O)N2CCCC2)cc1,0.864
15,COc1ccc(-c2cn[nH]c2-c2ccc(OCc3ccc([N+](=O)[O-])cc3)cc2O)cc1,-9.1
16,CCOC(=O)N1CCN(S(=O)(=O)c2cc(Cl)c(OC)cc2Cl)CC1,4.96
17,COc1ccc(NC(=O)CC2C(=O)N(c3ccc(OC)cc3)C(=O)N2CCc2cccs2)cc1 (stereo not shown),-0.997
18,CCOC1(c2ccccc2)OC(=O)c2ccccc21 (stereo not shown),0.901
19,CCOC(=O)CC(NC(=O)c1cc2ccccc2oc1=O)c1cccc([N+](=O)[O-])c1 (stereo not shown),-58.5
20,O=C(Nc1c2c(nn1-c1ccccc1)CS(=O)C2)c1ccc2c(c1)OCO2 (stereo not shown),-1.09
21,O=C(Nc1ccc(F)cc1F)c1cccn1-c1ncc(C(F)(F)F)cc1Cl,-5.39
22,CC(Oc1ccc(Br)cc1)C(=O)N1CCC(C(N)=O)CC1 (stereo not shown),-78.1

# Source: article PMC4336329 (PLoS ONE, 2015)
